# In PubChem BioAssay AID686979 (National Center for Advancing Translational Sciences (NCATS), 2013):
# The whole screen tested about 420,000 compounds, of which about 50,000 (12%) were called active. This list was built around the results that the source calls inconclusive (neither active nor inactive); the mix of calls is not that of the screen. Calls follow the shape of the dose curve; as a rule, active = well fitted inhibition curve with a large enough effect; inconclusive = small, poorly fitted or top-dose-only effect; inactive = flat fitted curve, though single readings scatter. Potencies of inconclusive entries are left out as doubtful fits.
# Assay: qHTS for Inhibitors of human tyrosyl-DNA phosphodiesterase 1 (TDP1): qHTS in cells in presence of CPT; also: nearly all actives have a fitted effect of over 55% in size
# Settings: chicken DT40 Tdp1-/-;hTDP1 cells + 20 nM CPT, ATP luminescence, 48 h; activity change, negative = growth inhibition: at 46.2 µM (top of the series)
# Summary of the method: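 Cell growth measured by CellTiter-Glo luminescence after a minimum 48 h, 37 C compound exposure with 20 nM CPT in Tdp1-knockout DT40 cells stably expressing hTDP1, seeded 400/well; qHTS titration format.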
# % is scaled to controls: 0 for no effect and ±100 for the full control effect; potency is read from the fitted curve at half-maximal effect; tags tell the direction and shape of the fitted curve.
Compound,Potency,"activity change, negative = growth inhibition"
COc1ccc(OC)c(Nc2nc(-c3sc(N)nc3C)cs2)c1,"inconclusive [inhibitor, single point]",
O=C(Nc1nc(-c2ccc(S(=O)(=O)N3CCCCCC3)cc2)cs1)c1cccs1,"inconclusive [inhibitor, single point]",
Cc1cc(-c2ccccc2)nc(N/N=C/c2ccco2)n1,active: 29.1 µM,
O=C(CC1N=C2c3ccccc3N=C(SCC(=O)Nc3ccccc3F)N2C1=O)NCc1ccc2c(c1)OCO2 (centres undefined),"inconclusive [inhibitor, single point]",
Cc1ccc(/C=C2\C(=N)N3N=C(CC(=O)N4CCOCC4)SC3=NC2=O)o1,,inactive: -21.2%
Cc1ccc2occ(CC(=O)Nc3c(C(=O)Nc4ccc(Cl)cc4)oc4ccccc34)c2c1,"inconclusive [inhibitor, single point]",
CCCCC(CC)C(=O)Nc1cc(C(=O)NCCC)ccc1N1CCC2(CC1)CC(c1ccccc1)=NO2 (centres undefined),active: 6.51 µM,
Cc1noc(C)c1C(=O)Nc1ccc(F)c(F)c1,,inactive: 2.34%
CCOC(=O)N1CCN(Cc2ccc3c(c2)CN(C(=O)c2ccc(C#CC(C)(C)O)o2)CCO3)CC1,"inconclusive [inhibitor, partial curve, poor fit]",
Cc1ccc(CSc2nncn3c2cc2sccc23)cc1,,inactive: -10.2%
O=C(COC(=O)c1ccc2ccccc2n1)c1ccccc1,,inactive: 2.18%
Cc1cc(O)c(-c2n[nH]c3c2C(c2cccc(O)c2)N(Cc2cccnc2)C3=O)cc1Cl (centres undefined),"inconclusive [inhibitor, single point]",
CN(C(=O)CSc1nc2ccccc2[nH]1)c1ccc(F)cc1,,inactive: -14.3%
Cc1cc(C)n(C(=O)c2cc3ccccc3c(=O)o2)n1,,inactive: 4.17%
COc1ccc2c(c1OC)C(=O)N(c1ccc(OCc3ccccc3)cc1)C2=O,,inactive: 2.95%
COc1ccc(OC)c(S(=O)(=O)NCc2ccc3c(c2)CCN3C(=O)c2cccc(C)c2)c1,active: 2.59 µM,
CCc1ccc(C(=O)Nc2cc3c(cc2Cl)OCCCO3)cc1,,inconclusive: -34.1% [inhibitor]
CC(=O)N(CCC1(C(C)C)CCOC(C)(C)C1)Cc1ccco1 (centres undefined),"inconclusive [inhibitor, partial curve, poor fit]",
COc1ccccc1OC(=O)c1cc(Cl)nc2ccccc12,,inactive: -28.8%
CCn1cc(C(=O)O)c(=O)c2cc(F)c(N3CCN(C(=S)NC(=O)c4cccc(F)c4)CC3)cc21,"inconclusive [inhibitor, full curve, poor fit]",
CCn1nnnc1SCC(=O)N1CCN(Cc2ccc3c(c2)OCCO3)CC1,"inconclusive [inhibitor, single point]",
O=C(NCc1ccc(Cl)cc1)c1cnc(N2CCOCC2)c2ccccc12,"inconclusive [inhibitor, single point]",
Cc1ccc(CSCCNC(=O)CN(c2cccc(C)c2C)S(=O)(=O)c2ccccc2)cc1,"inconclusive [inhibitor, single point]",
O=C(O)C1CCC(CN(Cc2cccc(Br)c2)C(=S)Nc2ccccc2F)CC1 (centres undefined),,inactive: -25%
CCOC(=O)c1c(NC(=O)C(C)Sc2cn(CCNC(=O)c3ccc(OC)cc3)c3ccccc23)sc2c1CCC2 (centres undefined),active: 20.6 µM,

Compound,Potency,"activity change, negative = growth inhibition"
COc1ccc(/C=C2/SC(=S)NC2=O)cc1OCc1ccccc1,"inconclusive [inhibitor, single point]",
COc1ccccc1Nc1nc(-c2ccc3c(c2)NC(=O)CO3)cs1,active: 23.1 µM,
Cc1ccc(NC(=S)N(C)Cc2cn(C)c3ccccc23)cc1,active: 16.4 µM,
O=C(CSc1nc2[nH]c(=O)cc(O)c2s1)NCCc1ccccc1,,inactive: -5.8%
CCCOCc1cc(CN2CCN(c3ccccc3OC)CC2)c(O)c2ncccc12,active: 4.61 µM,
Cc1ccc2c(c1)cc(CN(Cc1ccc3c(c1)OCO3)S(=O)(=O)c1ccccc1)c1nnnn12,"inconclusive [inhibitor, single point]",
Cc1cccc(N2C(=O)N(Cc3ccc(C(C)(C)C)cc3)c3ccccc3S2(=O)=O)c1,"inconclusive [inhibitor, single point]",
N#CC(C#N)=C1SC(=Nc2ccccc2)C(=Nc2ccccc2)N1c1ccccc1,active: 5.17 µM,
CC(OC(=O)/C(C#N)=C/c1ccco1)C(=O)N(C)c1ccccc1 (centres undefined),,inactive: 8.36%
COc1ccc(OC)c(C(=O)COC(=O)COc2ccccc2)c1,active: 14.6 µM,
COc1ccc(NCc2nnc(SCCN3CCCCC3)n2-c2ccc(C)cc2)cc1,,inactive: -4.46%
COc1ccc(CNC(=O)c2ccc3c(c2)CCN3S(=O)(=O)c2ccccc2)cc1,active: 11.6 µM,
COc1ccc(/C=N\NC(=S)SCN2C(=O)C3CCC(C)(C2=O)C3(C)C)cc1 (centres undefined),,inactive: -22%
O=C(c1ccccc1)c1ccccc1NC(=O)C1CCCN1Cc1ccccc1 (centres undefined),"inconclusive [inhibitor, single point]",
CN(C)C(=O)c1ccc2c3c(cccc13)CC2,,inactive: 12.3%
CN(C)c1ccc(CNC2C3CC4CC(C3)CC2C4)cc1 (centres undefined),"inconclusive [inhibitor, single point]",
CCN(CC)CCC(=O)N1C/C(=C/c2ccccc2)C(=O)/C(=C\c2ccccc2)C1,active: 1.84 µM,
CN1CCN(C(=O)C2=C[C@@H](C3CCCCC3)C[C@@H](OCCCCO)O2)CC1,,inactive: -17.3%
Cc1nc(Nc2ccc(F)cc2)nc(Nc2ccc(F)cc2)c1[N+](=O)[O-],"inconclusive [inhibitor, single point]",
CC(C)CC(N)c1csc(NC(=O)NCCc2ccccc2)n1 (centres undefined),"inconclusive [inhibitor, single point]",
OCCC1CN(Cc2cccn2-c2ncccn2)CCN1C1CCCC1 (centres undefined),,inactive: 12.6%
CCOC(=O)c1c(C)c(C(=O)NC2CCCCCC2)c(C)n1C,,inactive: -0.956%
CCn1c(=O)cc(SCC(=O)NCCCN2CCN(c3ccccc3F)CC2)c2ccccc21,"inconclusive [inhibitor, single point]",
CCCC(=O)Oc1ccc(N(C(=O)CCC)S(=O)(=O)c2cccc([N+](=O)[O-])c2)cc1,"inconclusive [inhibitor, partial curve]",
Cc1ccccc1CNC(=O)c1ccc(Cn2c(SCc3ccccc3)nc3cccnc32)cc1,"inconclusive [inhibitor, single point]",

Compound,Potency,"activity change, negative = growth inhibition"
O=C(/C=C/c1ccc(Cl)cc1)N1CCN(c2ccccn2)CC1,,inactive: -13.9%
Cc1ccc(Cl)cc1NC(=O)c1ccc2nc(CCc3ccccc3)oc2c1,"inconclusive [inhibitor, partial curve]",
COc1cc(/C=N/NC(N)=S)ccc1OCc1ccc(C)cc1,active: 5.17 µM,
Cc1ccc(S(=O)(=O)N(CC(=O)NCCC2=CCCCC2)Cc2ccccc2F)cc1,"inconclusive [inhibitor, single point]",
CC(=O)c1cccc(NC(=O)Nc2cc3c(cc2N2CCCC2)n(C)c(=O)n3C)c1,"inconclusive [inhibitor, single point]",
Cc1sc2ncn(CC(=O)NCc3ccccc3)c(=O)c2c1C,"inconclusive [inhibitor, single point]",
O=C(Cc1ccc(Cl)cc1)NCC(=O)N1CCCC1,,inactive: -1.6%
CC(C)OC(=O)c1nnc(-c2ccccc2)nc1OC(C)C,"inconclusive [inhibitor, partial curve]",
Cc1ccc([N+](=O)[O-])cc1S(=O)(=O)NCC1COc2ccccc2O1 (centres undefined),"inconclusive [inhibitor, single point]",
Cn1c(-c2cc(Br)ccc2O)n[nH]c1=S,,inactive: -8.01%
COCCN(C(=O)CSc1nnc(-c2ccccc2F)o1)c1c(N)n(CC(C)C)c(=O)[nH]c1=O,,inactive: -15.8%
Nc1ncnc2c1ncn2[C@@H]1O[C@H](CNS(=O)(=O)c2cc3ccccc3s2)[C@@H](O)[C@H]1O,"inconclusive [inhibitor, single point]",
O=C(Cc1ccccc1)NCc1nc2ccccc2[nH]1,,inactive: -23.6%
COc1ccc(CNc2nc(-c3ccco3)nn2C(=O)c2ccccc2C)cc1,"inconclusive [inhibitor, single point]",
NNc1nc(-c2ccccc2Cl)c2cc(Br)ccc2n1,active: 20.6 µM,
CCn1c(=O)c(C(=O)NCCc2ccccc2)c(O)c2ccccc21,"inconclusive [inhibitor, single point]",
O=C(Cc1c[nH]c2ccccc12)N/N=C/c1ccccc1O,active: 16.4 µM,
CCOc1ccc(Nc2oc(-c3ccc(COc4ccc(C)cc4)o3)nc2C#N)cc1,"inconclusive [inhibitor, single point]",
CC(C)c1ccc(NC(=O)C2C3C=CC4(O3)C2C(=O)N(CCCN2CCCCC2)C4C(=O)NC2CCCCC2)cc1 (centres undefined),,inactive: 2.85%
COc1ccc(NC(=O)c2cc(-c3cc(F)ccc3OCC3CCCO3)n[nH]2)c(C)c1 (centres undefined),"inconclusive [inhibitor, single point]",
CCN(C(=O)COC(=O)c1c(-c2ccccc2)noc1C)c1c(N)n(Cc2ccccc2)c(=O)[nH]c1=O,,inactive: -19.4%
COc1cc(C2=CN(Cc3ccccc3)CCC2=O)cc(OC)c1OC,,inactive: -28.1%
COc1ccc(S(=O)(=O)N(C)C[C@H]2Oc3ccc(NS(=O)(=O)c4cccs4)cc3CC(=O)N([C@H](C)CO)C[C@H]2C)cc1,"inconclusive [inhibitor, single point]",
CCOC(=O)/C(=N\Nc1ccccc1[N+](=O)[O-])c1csc(N)n1,"inconclusive [inhibitor, partial curve]",
